About 7,500 (2.1%) of roughly 360,000 compounds were called active. Inconclusive results, whose numbers are uncertain, are shown with a selection of clear calls. The call rests on the fitted dose curve; in most records, active means well fitted cell-killing curve with a large enough effect; inconclusive means small, poorly fitted or top-dose-only effect, or effect the other way, or another doubt; inactive means no such curve, though single readings can be large or run the other way. Potencies of inconclusive entries are left out as doubtful fits.
Assay: qHTS for induction of synthetic lethality in tumor cells producing 2HG: qHTS for the HT-1080-IDH1KD cell line;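 on activity, negative = toxicity: 0% = DMSO wells and -100% = cell-free medium wells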
Details: HT-1080 IDH1 knockdown viability, ATP luminescence, 48 h; activity, negative = toxicity: at 46.1 µM (top of the series) unless noted
How it was run: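 CellTiter-Glo luminescence after 48 h compound exposure at 37 degrees C of IDH1-knockdown HT-1080 cells in 5% FBS RPMI. %Activity scaled between DMSO wells and cell-free media wells, with curves fitted and assigned curve classes.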
Potency means the concentration at half of the fitted maximal effect; tags describe the fitted curve by direction and shape.

SMILES	Potency	activity, negative = toxicity
COc1cc(/C=C/C(=O)OCC(=O)N2CCOCC2)ccc1OCC#N	inconclusive [rising, partial curve]	–
Cc1ccc(S(=O)(=O)Nc2cccc(C(=O)NCc3cccnc3)c2)cc1F	active: 6.51 µM	–
CC1=NOC(=O)/C1=C\c1ccc(-c2ccc(Br)cc2)o1	inconclusive [cytotoxic, single point]	–
Cc1ccc(CSCc2ccc(C(=O)NC3CC3)o2)cc1	inconclusive [cytotoxic, single point]	–
CC1(CC(=O)N/N=C/c2ccc(OCc3ccc(Cl)cc3Cl)cc2)OCCCO1	inconclusive [cytotoxic, single point]	–
O=S1(=O)C=C(Sc2nc3ccccc3s2)c2ccccc21	active: 2.59 µM	–
Cc1ccc(Nc2nnc(SCC(=O)c3c(N)n(C4CC4)c(=O)[nH]c3=O)s2)cc1C	inconclusive [cytotoxic, partial curve]	–
O=C(NCCc1cccs1)C1CC(c2c(Cl)cccc2Cl)=NO1 (stereo not given)	–	inactive: -3.58%
CC1(C)Cc2ccccc2C(/C(=N\Nc2cccc(Cl)c2)C(N)=O)=N1	active: 20.6 µM	–
COc1ccc(S(=O)(=O)N2CCN(CCOc3ccc(Br)cc3)CC2)cc1OC	–	inconclusive: -30.7%
CC1(C)N=C(N)N=C(N)N1c1ccccc1	active: 1.64 µM	–
CN1CCN(CC(O)(c2ccc(Cl)cc2)c2ccc(Cl)cc2)CC1	active: 20.6 µM	–
COCc1cc(C)nc(SCC(=O)c2ccc(O)c(O)c2)c1C#N	inconclusive [cytotoxic, single point]	–
COc1ccc(OC)c(NC(=O)CSc2nc3n[nH]c(C)c3c(=N)n2-c2cccc(Cl)c2C)c1	active: 23.1 µM	–
CCCC(=O)N1CCCC(c2cc(C(=O)NCc3ccccc3)no2)C1 (stereo not given)	inconclusive [rising, single point]	–
CN(C)c1ccc(/C=C/c2ccc3ccccc3n2)cc1	inconclusive [cytotoxic, single point]	–
O=C1c2cccc3cccc(c23)C(=O)N1CC1CCN(CC(O)COc2ccc3ccccc3c2)CC1 (stereo not given)	active: 14.6 µM	–
O=C(Nc1cccc(-c2cnc3ccccc3n2)c1)c1ccncc1	inconclusive [cytotoxic, single point]	–
CCCCC[C@H](C)N1C[C@H](COCc2ccccc2)Oc2cc(N3CC[C@H](O)C3)ccc2S1(=O)=O	–	inconclusive: -98.8%
Cc1c(NC(=O)COC(=O)Cc2ccc(Cl)cc2)c(=O)n(-c2ccccc2)n1C	–	inactive: 1.85%
COc1ccc(NC(=O)C2(C)Cc3c(-c4cccc(C(N)=O)c4)ccnc3O2)cn1 (stereo not given)	active: 4.61 µM	–
Cc1c(Cl)ccc2c1NC(=O)[C@]21[C@@H]2C(=O)N(Cc3ccccc3)C(=O)[C@@H]2[C@@H]2CCCN21	inconclusive [cytotoxic, single point]	–
COc1ccc(OC)c(Nc2nc(-c3sc(NC(=O)CC(C)C)nc3C)cs2)c1	inconclusive [cytotoxic, single point]	–
FC(F)(F)C1CC(c2cccs2)Nc2ncnn21 (stereo not given)	inconclusive [cytotoxic, single point]	–

SMILES	Potency	activity, negative = toxicity
COCCn1c(SCC(=O)Nc2cccc(OC)c2)nc2c(oc3ccccc32)c1=O	–	inactive: 0.702%
COc1cc(/C=C2\SC(=S)N(Nc3ccccc3)C2=O)ccc1O	–	inactive: 2.18%
C=CC[C@H](CC(=O)N(CCO)Cc1ccccc1)C(=O)N[C@@H](C)COC(=O)[C@H](CC=C)CC(=O)OC(C)(C)C	–	inactive: 3.18%
CCOC(=O)[C@]12CCCC=C1N(Cc1ccc3c(c1)OCO3)C(=O)[C@H](CC(=O)NCC1CCCCC1)C2	inconclusive [cytotoxic, single point]	–
O=C(CCN1CCN(c2ccccc2)CC1)N/N=C/c1ccccc1OC(F)F	inconclusive [cytotoxic, single point]	–
CCOc1ccc2nc(Nc3nc4ccc(NC(C)=O)cc4s3)sc2c1	inconclusive [cytotoxic, single point]	–
Oc1ccccc1N1CCN(c2ncnc3scc(-c4ccc(F)cc4)c23)CC1	inconclusive [cytotoxic, partial curve]	–
CC1(C(=O)Nc2cnc3ccccc3c2)CCN1Cc1ccccc1Cl (stereo not given)	inconclusive [cytotoxic, full curve]	–
COc1ccc(N(CC(=O)Nc2cccc(SC)c2)S(C)(=O)=O)cc1Cl	–	inactive: -26.9%
CC(=O)Nc1cc(-c2ccc(N(C)C)cc2)cn2c(-c3ccc(F)cc3)cnc12	inconclusive [cytotoxic, single point]	–
COc1cc(C2CC(=O)Nc3cc(C)c(C)cc32)cc(OC)c1OC (stereo not given)	inconclusive [cytotoxic, single point]	–
COc1ccc(Cn2nnnc2CN(Cc2cc3ccc(C)cc3[nH]c2=O)C2CCCC2)cc1	inconclusive [cytotoxic, single point]	–
Cc1nn(C)c(C(=O)Nc2ccc(S(=O)(=O)NC34CC5CC(CC(C5)C3)C4)cc2)c1Br	inconclusive [cytotoxic, single point]	–
COc1c(C)cc(C(O)c2ncc(-c3ccc(Cl)cc3)[nH]2)cc1C (stereo not given)	inconclusive [cytotoxic, single point]	–
Cn1c(=O)c2cc3ccccc3nc2n(C)c1=O	–	inactive: 10.9%
Cc1ccc(NC(=O)CCC(=O)NNC(=O)COc2ccccc2)c(C)c1	inconclusive [cytotoxic, single point]	–
OC(CNCCc1ccc(Cl)cc1Cl)COc1ccccc1 (stereo not given)	inconclusive [cytotoxic, single point]	–
COc1cc2[nH]cc(C(=O)NCc3cccs3)c(=O)c2cc1OC	inconclusive [cytotoxic, single point]	–
Cc1ccc(Cl)c(NC(=O)COC(=O)c2cc[n+]([O-])cc2)c1Cl	–	inactive: -4.31%
c1ccc(CCNCCCOc2cccc3ccccc23)cc1	inconclusive [cytotoxic, single point]	–
Cc1ccc(C2C3=C(NCCN=C3c3ccccc3)C(=O)N2c2ccccc2)cc1 (stereo not given)	inconclusive [cytotoxic, partial curve]	–
Cc1c(Cl)cccc1NC(=S)Nc1ccc(S(=O)(=O)Nc2ncccn2)cc1	–	inactive: -1.83%
O=C(Nc1ccc(F)cc1F)N1CCCN(c2ccc(C(F)(F)F)cn2)CC1	active: 13 µM	–
COc1ccc(NS(=O)(=O)c2cccc(NC(=O)c3ccc(S(=O)(=O)N4CCCCCC4)cc3)c2)cc1	inconclusive [cytotoxic, partial curve, poor fit]	–

SMILES	Potency	activity, negative = toxicity
COc1ccc(C(C)(C)C)cc1NC(=O)Nc1ccc2c(c1)OCO2	inconclusive [cytotoxic, single point]	–
COc1cc2sc3ccc(C#CC4(O)CCCCC4)cc3c(=O)c2cc1OC	inconclusive [cytotoxic, single point]	–
CC/C(=N/NS(=O)(=O)c1ccc(Cl)cc1)c1ccc(O)cc1	–	inactive: 6.01%
O=C(/C=C/c1ccccc1)NC(NC(=S)Nc1ccc(Cl)cc1Cl)C(Cl)(Cl)Cl (stereo not given)	inconclusive [cytotoxic, single point]	–
CCc1nc2c(OCc3ccc(Cl)cc3)cccn2c1N(C)C(=O)c1cccs1	inconclusive [cytotoxic, single point]	–
Cc1nn(C)cc1CN1CCCC(C(=O)c2ccc(-c3ccccc3)c(F)c2)C1 (stereo not given)	inconclusive [cytotoxic, single point]	–
COc1ccccc1-c1noc2ncnc(Nc3cccc(C)c3C)c12	–	inactive: 3.21%
COc1ccc(C(=O)Nc2cc(C)nn2-c2cccc(F)c2)cc1	–	inactive: 0.348%
CCCCC(C)Sc1nc2c([nH]1)c(=S)n(C)c(=O)n2C (stereo not given)	inconclusive [rising, partial curve]	–
O=C(c1ccccc1)c1ccc(OCCn2cnc3ccccc3c2=O)cc1	inconclusive [cytotoxic, single point]	–
COc1ccc([N+](=O)[O-])cc1-c1[nH]c(-c2ccc(C(=O)O)cc2)nc1-c1ccccc1	–	inactive: -0.883%
COc1ccc(C2N(c3ccc(Cl)cc3)N=C(C(C)=O)N(C)N2C(C)=O)cc1 (stereo not given)	inconclusive [cytotoxic, single point]	–
Cc1ccc(NC(=O)CSCc2n[nH]c(=O)[nH]2)c(Br)c1	–	inactive: 9.57%
CCC(C(=O)Nc1ccc2[nH]ncc2c1)c1ccccc1 (stereo not given)	–	inactive: -15.5%
CCN(Cc1ccccc1)C(=O)c1cc2c(OC)c(OC)c(OC)cc2[nH]1	–	inactive: -1.51%
NC(Cc1ccc(C(F)(F)F)cc1)c1csc(Nc2ncccn2)n1 (stereo not given)	inconclusive [cytotoxic, single point]	–
COc1ccc(NS(=O)(=O)c2cc(NC(=O)c3ccc(=O)[nH]c3)ccc2N2CCOCC2)cc1	–	inconclusive: -8.68% [cytotoxic]
CC(=O)c1cc(NC(=O)c2ccc(C)cc2)c(=O)oc1C	inconclusive [cytotoxic, single point]	–
CCc1ccc(Nc2nnc(SCC(=O)NC(=O)c3cccn3C)s2)cc1	inconclusive [cytotoxic, single point]	–
COc1c(F)c(F)c(C(=O)O)c(Nc2ccc(C)cc2C)c1F	–	inactive: 3.58%
CCCCN(C(=O)c1ccc(OC)c([N+](=O)[O-])c1)c1c(N)n(CCC)c(=O)[nH]c1=O	–	inactive: 18.2%
CCN(Cc1ccccc1)C(=O)c1ccc(Cl)cc1[N+](=O)[O-]	–	inactive: -2.17%

Reference: PubChem BioAssay AID686971 (National Center for Advancing Translational Sciences (NCATS), 2013)
